Source: patent US20140371160A1 (ALTEOGEN, published 2014)

Tests used:
[1] = biological target: T1, Plasma-derived human alpha-1 antitrypsin (Calbiochem, US) (human, UniProt P01009, N-glycans at asparagine 46, 83 and 247); assay: remaining elastase activity after 120, 300 and 600 s at equal molar ratio (20 nM each), AAA-pNA substrate, 25 C
T1 construct: mature; also called Plasma alpha-1 antitrypsin; wild-type plasma-derived alpha-1 antitrypsin
Procedure: (§1) Porcine pancreatic elastase (Calbiochem, Cat. 324682) and AAA-pNA (N-Succinyl-Ala-Ala-Ala-p-nitroanilide, Sigma, S4760) were used as an enzyme and a substrate, respectively, to measure the rate constants of the alpha-1 antitrypsin and variants thereof. More particularly, the porcine pancreatic elastase and the alpha-1 antitrypsin and variants thereof were mixed at the same molar ratio, and reacted at 25° C. for 120 seconds, 300 seconds, and 600 seconds. Thereafter, the AAA-pNA was added to the resulting reaction mixture, and measured for kinetics for 5 minutes at intervals of one minute. In the final reaction, the concentrations of the porcine pancreatic elastase and the alpha-1 antitrypsin and variants thereof were 20 nM, and the concentration of the AAA-pNA was 1 mM.
(§2) Because the reaction of the porcine pancreatic elastase with the alpha-1 antitrypsin and variants thereof was an irreversible secondary reaction (Levenspiel O. Chemical reaction engineering, 2nd edition. 1972, Wiley, New York), the rate constant was calculated by the equation: 1/R=kaCE0t+1 [R=Remaining PPE activity, ka=Rate constant (M⁻¹ s⁻¹), CE0=Initial concentration of AAT (M), and t=Reaction time (seconds)]. The association rate constant (ka) was calculated using the activities of porcine pancreatic elastase remaining at each reaction time.

[2] = biological target: T2, Recombinant wild-type human alpha-1 antitrypsin (subtype M3) expressed in CHO-K1 cells (T003) (human, UniProt P01009, N-glycans at asparagine 46, 83 and 247); assay: as above
T2 construct: The protein was secreted from CHO-K1 cells and purified; also called pT003; wild-type human alpha-1 antitrypsin (T003)
Procedure: as §1, §2

[3] = biological target: T1, Plasma-derived human alpha-1 …; assay: equilibrium constant Ka=[EI]/[E]f/[I]f from elastase activity with AAA-pNA substrate
Procedure: as §1
(§3) Also, the equilibrium constant of the alpha-1 antitrypsin and variants thereof was calculated using the following equation.

[4] = biological target: T2, Recombinant wild-type human alpha-1 …; assay: as above
Procedure: as §1, §3

B1: Porcine pancreatic elastase (Calbiochem, Cat. 324682) (enzyme, UniProt P00772 27-266, looked up)
chain: VVGGTEAQRNSWPSQISLQYRSGSSWAHTCGGTLIRQNWVMTAAHCVDRELTFRVVVGEHNLNQNDGTEQYVGVQKIVVHPYWNTDDVAAGYDIALLRLAQSVTLNSYVQLGVLPRAGTILANNSPCYITGWGLTRTNGQLAQTLQQAYLPTVDYAICSSSSYWGSTVKNSMVCAGGDGVRSGCQGDSGGPLHCLVNGQYAVHGVTSFVSRLGCNVTRKPTVFTRVSAYISWINNVIASN
notes: Commercial enzyme; also called PPE
- kon [1]: 540000 M⁻¹ s⁻¹
- kon [2]: 650000 M⁻¹ s⁻¹
- Ka [3]: 2.6e+09 M⁻¹
- Ka [4]: 3.56e+09 M⁻¹
